Laboratory results reported in article PMC4336329 (PLoS ONE, 2015).
About 2,200 (0.71%) of roughly 310,000 compounds showed an effect of 50% or more. Effects have a minus sign here. The list shows a part of the results.

target: human ether-à-go-go-related gene (hERG) potassium channel (human, UniProt Q12809); test: primary screen, population patch clamp on CHO cells stably expressing hERG
Sequence (Q12809 whole entry, looked up): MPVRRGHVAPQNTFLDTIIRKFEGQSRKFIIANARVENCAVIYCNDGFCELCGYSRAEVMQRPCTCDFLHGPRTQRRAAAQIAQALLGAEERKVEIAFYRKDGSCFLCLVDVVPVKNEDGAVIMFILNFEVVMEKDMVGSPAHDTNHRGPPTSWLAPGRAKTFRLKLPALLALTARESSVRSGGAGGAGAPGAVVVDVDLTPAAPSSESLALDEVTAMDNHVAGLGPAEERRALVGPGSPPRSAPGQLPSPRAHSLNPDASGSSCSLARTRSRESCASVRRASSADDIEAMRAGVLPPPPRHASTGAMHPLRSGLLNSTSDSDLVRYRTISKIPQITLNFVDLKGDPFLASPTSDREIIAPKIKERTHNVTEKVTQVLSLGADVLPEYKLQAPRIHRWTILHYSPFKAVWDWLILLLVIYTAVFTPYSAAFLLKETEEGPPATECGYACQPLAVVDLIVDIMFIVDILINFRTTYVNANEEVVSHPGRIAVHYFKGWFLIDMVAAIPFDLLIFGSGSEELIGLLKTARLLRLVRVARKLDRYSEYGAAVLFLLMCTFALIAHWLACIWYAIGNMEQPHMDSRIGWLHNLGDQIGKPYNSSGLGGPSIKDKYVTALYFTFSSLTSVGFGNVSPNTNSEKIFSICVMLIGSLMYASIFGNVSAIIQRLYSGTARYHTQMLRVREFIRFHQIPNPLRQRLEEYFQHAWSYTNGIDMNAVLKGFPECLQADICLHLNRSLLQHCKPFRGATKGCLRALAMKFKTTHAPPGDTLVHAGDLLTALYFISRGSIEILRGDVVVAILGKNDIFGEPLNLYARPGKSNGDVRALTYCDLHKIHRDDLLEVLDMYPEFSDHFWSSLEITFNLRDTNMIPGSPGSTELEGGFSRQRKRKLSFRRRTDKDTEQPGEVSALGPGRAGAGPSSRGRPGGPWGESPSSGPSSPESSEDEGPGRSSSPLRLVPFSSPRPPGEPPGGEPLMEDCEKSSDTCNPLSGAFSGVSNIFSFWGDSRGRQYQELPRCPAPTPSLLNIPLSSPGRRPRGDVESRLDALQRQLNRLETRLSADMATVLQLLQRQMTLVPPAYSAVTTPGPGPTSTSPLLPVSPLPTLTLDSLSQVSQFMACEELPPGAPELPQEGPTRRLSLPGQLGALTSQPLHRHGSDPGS

Compound	hERG current change (%, negative = inhibition) at 1uM [%]
COc1ccc(CC(=O)NCc2ccc(F)cc2)cc1S(=O)(=O)N1CCOCC1	4.78
CC(=O)Nc1cccc(OCCCNS(=O)(=O)c2ccc(C#N)cc2)c1	3.85
COc1nc(C)ccc1-c1noc(-c2cccnc2)n1	5.05
COc1cccc(CC(=O)OCC(=O)NC2(C#N)CCCC2)c1	2.44
CN(C(=O)C1CCCCC1)C1(C)CCS(=O)(=O)C1 (centres unmarked)	3.96
O=C1CN(C(=O)COC(=O)c2cnc(Cl)c(Cl)c2)c2ccccc2N1	12
Oc1ccc(CNc2ccccc2F)c2cccnc12	15.4
COc1ccc(NS(=O)(=O)c2cccc(C(=O)N(C)CC(=O)Nc3ccc(C)cc3)c2)cc1	-1.97
COC(=O)C1C(=O)C=C(Nc2ccc(F)cc2)CC1c1ccc(OC)cc1 (centres unmarked)	9.98
Cc1cccc(N=C2N=C(N)c3ccccc32)c1	-8.5
COC(=O)C1=C(CSCc2ccccc2)NC(=O)NC1c1cc(C)ccc1C (centres unmarked)	-3.8
Cn1c(=O)cc(SCC(=O)N2CCN(C3CCCCC3)CC2)c2ccccc21	-3.36
COc1cc2ccccc2cc1C(=O)OCC(=O)NC1CCS(=O)(=O)C1 (centres unmarked)	2.02
Cc1c(Cl)cccc1N1CC(C(=O)Nc2nccs2)CC1=O (centres unmarked)	7.24
O=C(COC(=O)CNC(=O)c1ccc(Cl)cc1Cl)NCc1ccco1	4.96
Cc1cc(C)cc(NC(=O)NCC2CCN(Cc3cc(C)ccc3C)CC2)c1	-2.94
O=C(NCCCN1CCOCC1)C(=O)N/N=C/c1c2ccccc2cc2ccccc12	8.07
NS(=O)(=O)c1ccc(N/N=C/c2cn(-c3ccccc3)nc2-c2ccccc2)c([N+](=O)[O-])c1	12.3
O=C(CN1CCCCCC1)Nc1cccc([N+](=O)[O-])c1	7.71
COc1ccc(OC)c(/C=N\NC(=O)c2ccc(=O)n(C)c2)c1	5.17
Cc1cccc(-c2c3c(nc4c2c(=O)n(C)c(=O)n4C)-c2ccccc2C3O)c1 (centres unmarked)	10.7
CS(=O)(=O)N(CC(=O)N1CCN(Cc2ccccc2)CC1)c1ccc2c(c1)OCCO2	6.03

Compound	hERG current change (%, negative = inhibition) at 1uM [%]
Cc1cccc(-n2nc3c(c2NC(=O)c2cc4ccccc4o2)CS(=O)(=O)C3)c1	0.99
Fc1ccccc1-c1[nH]ncc1-c1nnnn1-c1ccccc1	8.83
CCCNC(=S)Nc1ccc(Br)cc1	10.8
CCn1cc(Cl)c(C(=O)Nc2cccc(CN3CCOCC3)c2)n1	13.2
CCCC(O)(CCC)C(=O)NN(C(=O)CCl)c1ccccc1	5.88
O=C(c1ccccn1)N1CCN(S(=O)(=O)c2ccccc2)CC1	10.2
Cc1nc2sccn2c(=O)c1S(=O)(=O)NCCc1ccc(Cl)cc1	18.6
CCN(CC)S(=O)(=O)c1cccc(-c2nnc(SCC(=O)c3ccc(Cl)s3)n2C)c1	5.39
Cc1cccc(NC(=S)N2CCN(c3ccccn3)CC2)c1	9.17
Cc1ccc(C(C)NC(=O)c2cc3cc(Br)ccc3oc2=N)cc1 (centres unmarked)	1.91
CCc1c(C(=O)NC2CCCC2)csc1C	-4.98
CC(C)Nc1nc(Oc2cccc(Cl)c2Cl)cc(C(F)(F)F)n1	12.9
O=C(NCc1ccco1)C1CC(c2cccc([N+](=O)[O-])c2)=NO1 (centres unmarked)	-5.75
COc1ccccc1C(=O)NC(=O)CSc1nc(C)cs1	14.7
CCC(C)[C@H](NC(=O)NCc1cccs1)C(=O)OC (some centres unmarked)	6.99
COc1ccc(C)cc1NC(=O)C1CC1c1ccccc1 (centres unmarked)	5
COc1ccc(CC(=O)NC2CCSc3ccccc32)cc1OC (centres unmarked)	10.2
COc1ccc(-c2nc(CSCC(=O)NC3CCN(Cc4ccccc4)CC3)c(C)o2)cc1OC	1.98
O=C(Nc1cc(Cl)ccc1N1CCOCC1)c1ccc(N2CCCC2=O)cc1	7.06
COC(=O)Cn1c(=NC(=O)CSCC(=O)Nc2cc(C)on2)sc2cc(C(=O)OC)ccc21	8.35
C=CCn1c(SCC(=O)Nc2cc(C)on2)nc2sc3c(c2c1=O)CCCC3	-0.954
CC1C(=O)O[C@@H]2C[C@@H](C)[C@@H]3CCC(=O)[C@@]3(C)[C@@H](O)[C@H]12 (some centres unmarked)	9.74
